# Source: PubChem BioAssay (NCATS)
# “And” between values parts separate entries of the source, which are not always exact repeats. Equal entries are not always repeated. The inconclusive results got no clear call from the source; some entries with a clear call stand among them for comparison. For part of these data: Potencies beside an inconclusive call are fits to weak or partial responses and may not hold up. The source made the active and inactive calls. The call rests on the fitted dose curve; in most records, active means well fitted curve in the direction sought with a large enough effect; inconclusive means small, poorly fitted or top-dose-only effect, or another doubt; inactive means no such curve, though single readings can be large; an effect the other way counts as inactive or inconclusive.
# Legend:
# [1] = qHTS for Inhibitors of Plasmodium falciparum (DD2) proliferation (AID 504314); further: potency means the concentration at half of the fitted maximal effect;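 on activity, negative = inhibition: parasite DNA measured by SYBR Green fluorescence after red cell lysis; plate controls were DMSO vehicle for no effect and artemisinin wells for full effect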; settings: P. falciparum Dd2 in erythrocytes, SYBR Green growth, 72 h; activity, negative = inhibition: at 6.11 µM (top of the series)
# Procedure, shortened: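 Erythrocytes infected with P. falciparum (0.3% parasitemia, 2.5% hematocrit final) were incubated with compounds for 72 h at 37C, 5% CO2. Parasite DNA was detected by SYBR Green I fluorescence after saponin/Triton lysis, normalized to artemisinin (0.29 uM) and DMSO controls.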
# [2] = qHTS for Inhibitors of Plasmodium falciparum (GB4) proliferation (AID 504315); further: nearly all actives have a fitted effect of over 50% in size; further: potency means the concentration at half of the fitted maximal effect;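 on activity change, negative = inhibition: 0% = DMSO vehicle and -100% = 0.29 µM artemisinin control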; settings: P. falciparum GB4 in erythrocytes, SYBR Green DNA, 72 h; activity change, negative = inhibition: at 6.7 µM (top of the series)
# Procedure, shortened: (§1)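 Erythrocytes infected with P. falciparum line (0.3% parasitemia, 2.5% hematocrit final) incubated with compounds 72 h at 37 °C, 5% CO2; SYBR Green lysis buffer added, fluorescence read next day. Normalized to 0.29 uM artemisinin and DMSO.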
# [3] = qHTS for Inhibitors of Plasmodium falciparum (HB3) proliferation (AID 504318); further: nearly all actives have a fitted effect of over 60% in size; further: potency means the concentration at half of the fitted maximal effect;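 on activity change, negative = inhibition: 0% = DMSO vehicle and -100% = artemisinin control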; settings: P. falciparum HB3 in erythrocytes, SYBR Green DNA, 72 h; activity change, negative = inhibition: at 7.21 µM (top of the series)
# Procedure, shortened: as §1
# [4] = qHTS for Inhibitors of Plasmodium falciparum (CP250) proliferation (AID 504320); further: potency means the concentration at half of the fitted maximal effect;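 on activity change, negative = inhibition: plate controls were DMSO vehicle for no effect and 0.29 µM artemisinin control for full effect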
# Procedure, shortened: as §1
# [5] = qHTS for Inhibitors of Plasmodium falciparum (7G8) proliferation (AID 504316); further: nearly all actives have a fitted effect of over 65% in size; further: potency means the concentration at half of the fitted maximal effect;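 on activity change, negative = inhibition: 0% = DMSO vehicle and -100% = 0.29 µM artemisinin full kill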; settings: P. falciparum 7G8 in erythrocytes, SYBR Green DNA, 72 h; activity change, negative = inhibition: at 6.7 µM (top of the series)
# Procedure, shortened: as §1
# [6] = target: Cytochrome P450 2C19 (Homo sapiens) (UniProt P33261); assay: qHTS Assay for Inhibitors and Substrates of Cytochrome P450 2C19 (AID 899); further: top concentration of the series differs between compounds; on the % scale 0 is the no-effect control and ±100 the full control effect; nearly all actives have a fitted effect of over 60% in size
# Procedure, shortened: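 NADPH-dependent conversion of Luciferin-H EGE (10uM, at KM) by 5nM enzyme in 50mM KPO4, 60 min at 37C following 10 min compound preincubation. Stopped with luciferin detection buffer; luminescence read after 20 min.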
# Tags describe the fitted curve by direction and shape.
# UniProt P33261, sequence (P33261 whole entry, looked up): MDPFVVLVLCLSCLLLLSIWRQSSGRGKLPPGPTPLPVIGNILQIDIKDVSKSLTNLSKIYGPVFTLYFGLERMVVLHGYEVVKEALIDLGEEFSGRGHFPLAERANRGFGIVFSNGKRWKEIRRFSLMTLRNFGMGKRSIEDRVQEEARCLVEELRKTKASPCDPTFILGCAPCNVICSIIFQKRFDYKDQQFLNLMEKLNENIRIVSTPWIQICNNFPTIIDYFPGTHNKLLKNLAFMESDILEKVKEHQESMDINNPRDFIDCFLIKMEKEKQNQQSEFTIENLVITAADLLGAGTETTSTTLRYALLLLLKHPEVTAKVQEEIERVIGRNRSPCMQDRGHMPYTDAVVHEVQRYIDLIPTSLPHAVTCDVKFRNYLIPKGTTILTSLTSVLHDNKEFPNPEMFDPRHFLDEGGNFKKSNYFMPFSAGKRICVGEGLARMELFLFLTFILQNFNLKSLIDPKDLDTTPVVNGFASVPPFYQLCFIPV
compound,measurement,setting,value
C=CCCC1(C(=O)c2ccccc2)C(=O)C(CC=C(C)C)=C(OC)C(CC=C(C)C)(CCC=C(C)C)C1=O (stereo not drawn),Potency,[1],"inconclusive: 3 µM [inhibitor, single point]"
same,Potency,[2],active: 1.69 µM
same,Potency,[3],active: 1.69 µM
same,Potency,[4],"inconclusive: 4.26 µM [inhibitor, single point]"
COC(=O)[C@H]1C[C@@]2(CC=C(C)C)C(=O)[C@@](CC=C(C)C)(C(=O)C(C(=O)c3ccccc3)=C2OC)C1(C)C,Potency,[1],inactive
same,Potency,[5],inactive
COC(=O)C1=C(C)N(Cc2ccccc2)C(=NCC2CC2)NC1c1ccc(Br)cc1 (stereo not drawn),Potency,[1],"inconclusive: 1.5 µM [inhibitor, partial curve, poor fit]"
same,Potency,[2],"inconclusive: 1.69 µM [inhibitor, partial curve]"
same,Potency,[4],"inconclusive: 4.26 µM [inhibitor, single point]"
C=COC[C@H]1CN2[C@H](c3ccc(Br)cc3)[C@H](C)CC[C@H]2C(=O)O1,Potency,[1],"inconclusive: 3.78 µM [inhibitor, single point]"
same,Potency,[2],"inconclusive: 2.69 µM [inhibitor, single point]"
same,Potency,[3],"inconclusive: 2.62 µM [inhibitor, single point]"
same,Potency,[4],active: 1.9 µM
CCN1C(=O)[C@@H]2[C@H]3[C@H](O)[C@H](O)CC(=NO[C@@H](C)c4cn([C@H](CO)Cc5ccccc5)nn4)[C@@H]3CC[C@H]2C1=O,Potency,[1],inactive
same,Potency,[5],inactive
CC1(C)CC(=O)C2=C(C1)O[C@@]1(c3ccsc3)Cc3cc(C#N)ccc3[C@H]2O1,Potency,[1],"inconclusive: 1.69 µM [inhibitor, partial curve, poor fit]"
same,Potency,[5],"inconclusive: 2.13 µM [inhibitor, partial curve]"
CCCCC1=CC2=C(c3ccco3)C(=O)C(C)(OC(=O)c3ccc(OC)cc3)C(=O)C2=CN1Cc1ccc(OC)cc1 (stereo not drawn),"activity, negative = inhibition",[1],inconclusive: -14.2% [inhibitor]
same,Potency,[5],inactive
CCCCC1=CC2=CC(=O)C(C)(OC(=O)c3cnc4ccccc4n3)C(=O)C2=CO1 (stereo not drawn),Potency,[1],inactive
same,Potency,[5],inactive
C=CCN1C(=O)[C@@]2(CC(C)=C[C@@H](COc3ccccc3)O2)c2ccccc21,Potency,[1],inactive
same,Potency,[5],"inconclusive: 1.69 µM [inhibitor, single point]"
CC#CCN1c2ccccc2[C@]23C[C@@H](C(=O)OC)N(C(=O)c4ccc(Br)cc4)C2=NC(C(=O)OC)=C(C(=O)OC)[C@H]13,"activity, negative = inhibition",[1],inactive: 2.88% [at 1.12 µM]
same,Potency,[5],"inconclusive: 1.9 µM [inhibitor, partial curve, poor fit]"
COC(=O)N1C(C)=Cc2ccccc2C1CC(C)=O (stereo not drawn),Potency,[1],"inconclusive: 0.0038 µM [activator, full curve]"
same,Potency,[2],inconclusive: 0.001 µM [activator]
same,Potency,[4],inactive
C=COC[C@@H]1CN2[C@H](c3ccc(Br)cc3)[C@H](C)CC[C@H]2C(=O)O1,Potency,[1],inactive
same,Potency,[5],inactive
C=CC[C@@]1(c2ccc(Br)cc2OC)Oc2ccccc2-c2nccnc21,Potency,[1],inactive
same,Potency,[2],"inconclusive: 1.9 µM [inhibitor, partial curve]"
same,Potency,[3],"inconclusive: 1.35 µM [inhibitor, partial curve]"
same,Potency,[4],inactive
COC(=O)N1C(C=Cc2ccc3c(c2)OCO3)=Cc2ccccc2C1CC(C)=O (stereo not drawn),Potency,[1],"inconclusive: 1.5 µM [inhibitor, single point]"
same,Potency,[2],"inconclusive: 1.69 µM [inhibitor, single point]"
same,Potency,[3],"inconclusive: 1.69 µM [inhibitor, partial curve]"
same,Potency,[4],"inconclusive: 1.9 µM [inhibitor, single point]"
COC(=O)C1=C(C(=O)OC)[C@@H]2N(Cc3ccccc3)c3ccccc3[C@@]23CCC(=O)N(CC2CC2)C3=N1,Potency,[1],"inconclusive: 1.89 µM [inhibitor, single point]"
same,Potency,[2],"inconclusive: 2.13 µM [inhibitor, single point]"
same,Potency,[3],active: 3.29 µM
same,Potency,[4],"inconclusive: 3.79 µM [inhibitor, single point]"
CCCCn1c(C)cc2c(c1=O)[C@H]1O[C@](c3ccsc3)(Cc3cc(OC)c(OC)cc31)O2,Potency,[1],"inactive and inconclusive: 4.24 µM [inhibitor, single point]"
same,Potency,[2],"inconclusive: 2.69 µM [inhibitor, partial curve]"
same,Potency,[4],inactive
CCOC(=O)OC[C@H]1O[C@H](c2ccc(C(C)=O)cc2)C=C[C@H]1Oc1ccc(-c2ccccc2)cc1,Potency,[1],"inconclusive: 1.5 µM [inhibitor, partial curve, poor fit]"
same,Potency,[2],"inconclusive: 3.01 µM [inhibitor, single point]"
same,Potency,[4],"inconclusive: 4.26 µM [inhibitor, single point]"
Cc1c(O)c(=O)ccn1Cc1ccccc1,Potency,[6],inactive
same,Potency,[1],"inconclusive: 2.67 µM [inhibitor, single point]"
same,Potency,[2],inactive
same,Potency,[3],"inconclusive: 1.9 µM [inhibitor, single point]"
same,Potency,[4],"inconclusive: 1.69 µM [inhibitor, partial curve, poor fit]"
COc1cccc([C@H]2Oc3ccc(OC)cc3C(=NOC[C@@H](O)COCc3ccco3)[C@H]2O)c1,Potency,[1],inactive
same,Potency,[5],inactive
C=C(COC)C1=CCC(C(=O)OC)(C(=O)OC)[C@@H](C[N+](=O)[O-])c2ccccc21,Potency,[1],inactive
same,Potency,[2],"inconclusive: 0.0021 µM [inhibitor, full curve, poor fit]"
same,Potency,[4],inactive
CCN1C(=NCC(C)C)N[C@H](c2ccccc2)[C@H](C(=O)OC)[C@H]1C,Potency,[1],inactive
same,Potency,[5],inactive
C=C1C2c3ccccc3C(CC2(C)O[Si](C)(C)C)N1C(=O)OC (stereo not drawn),Potency,[1],"inconclusive: 0.0927 µM [inhibitor, full curve, poor fit]"
same,Potency,[5],inactive
COc1cccc([C@@H]2Oc3ccc(Br)cc3C(=O)[C@@H]2O)c1,Potency,[1],"inconclusive: 0.169 µM [activator, partial curve, poor fit]"
same,Potency,[5],"inconclusive: 2.39 µM [inhibitor, single point]"
CC12C=C(C=Cc3ccc(F)cc3)C(C)(C1)C(c1ccc(F)cc1)CC2=O (stereo not drawn),Potency,[1],"inconclusive: 1.5 µM [inhibitor, single point]"
same,Potency,[5],"inconclusive: 1.9 µM [inhibitor, single point]"
CCN1C(=NCc2cccc(C(F)(F)F)c2)NC(c2ccccc2)C(C(=O)OC)=C1C (stereo not drawn),Potency,[1],"inconclusive: 1.5 µM [inhibitor, partial curve, poor fit]"
same,Potency,[2],"inconclusive: 1.2 µM [inhibitor, partial curve]"
same,Potency,[4],"inconclusive: 4.26 µM [inhibitor, single point]"
COCC=CC1=CC2=CC(=O)C(C)(OC(=O)c3cnc4ccccc4n3)C(=O)C2=CN1CCc1c[nH]c2ccccc12 (stereo not drawn),Potency,[1],"inconclusive: 0.0119 µM [inhibitor, full curve]"
same,Potency,[5],"inconclusive: 1.9 µM [inhibitor, single point]"
O=C(NC(CC1=CCCCC1)c1ccc2ccccc2c1)C(F)(F)F (stereo not drawn),Potency,[1],"inconclusive: 4.24 µM [inhibitor, single point]"
same,Potency,[5],"inconclusive: 0.478 µM [inhibitor, single point]"
COc1cccc([C@@H]2Oc3ccc(OC)cc3C[C@@H]2OC(=O)N[C@H]2CCCc3ccccc32)c1,Potency,[1],"inconclusive: 3.36 µM [inhibitor, partial curve, poor fit]"
same,Potency,[5],active: 1.51 µM
C[C@@H]1CC[C@H]2C(=O)O[C@H](COc3ccc(C(C)(C)C)cc3)CN2[C@@H]1c1ccc(Br)cc1,Potency,[1],"inconclusive: 4.24 µM [inhibitor, single point]"
same,Potency,[5],inactive
COC(=O)C1=C(C)N(Cc2ccccc2)C(=NCC(C)C)NC1c1cccc(F)c1 (stereo not drawn),Potency,[1],"inconclusive: 1.5 µM [inhibitor, single point]"
same,Potency,[2],"inconclusive: 1.51 µM [inhibitor, single point]"
same,Potency,[3],inactive
same,Potency,[4],"inconclusive: 1.9 µM [inhibitor, partial curve, poor fit]"
C=CC1=C2C=C(C3CC3)N(c3ccc(OC)cc3)C=C2C(=O)C(C)(OC(=O)c2ccco2)C1=O (stereo not drawn),Potency,[1],"inconclusive: 2.38 µM [inhibitor, single point]"
same,Potency,[5],"inconclusive: 2.13 µM [inhibitor, single point] and inconclusive: 1.9 µM [inhibitor, partial curve, poor fit]"
N#Cc1ccc2c(c1)C[C@]1(CCCCN3C(=O)c4ccccc4C3=O)Oc3cc(-c4ccccc4)oc(=O)c3[C@H]2O1,Potency,[1],"inconclusive: 4.24 µM [inhibitor, single point]"
same,Potency,[5],"inconclusive: 1.69 µM [inhibitor, partial curve]"
COc1ccc(O[C@H]2C=C[C@@H](c3ccccc3)O[C@H]2COC(=O)CCC(C)=NOCC[C@@H]2C=C[C@H](OC(C)=O)[C@@H](COC(C)=O)O2)cc1,Potency,[1],"inconclusive: 0.006 µM [inhibitor, full curve, poor fit]"
same,Potency,[5],"inconclusive: 0.0024 µM [inhibitor, full curve, poor fit]"
Cc1ccc(S(=O)(=O)N2CCc3nc(COc4ccccc4)c4c(c3C2)CO[C@@H](C)C4)cc1,"activity, negative = inhibition",[1],inactive: -2.17% [at 1.12 µM]
same,Potency,[2],"inconclusive: 1.9 µM [inhibitor, single point]"
same,Potency,[3],"inconclusive: 1.9 µM [inhibitor, single point]"
same,Potency,[4],"inconclusive: 2.39 µM [inhibitor, partial curve, poor fit]"
CC[C@H](C)[C@@H](NC(=O)O[C@@H]1C(=O)c2cc(OC)ccc2O[C@H]1c1ccc(OC)c(Br)c1)C(=O)OC,Potency,[1],inactive
same,Potency,[5],inactive
